Results taken from PubChem BioAssay AID1030 (National Center for Advancing Translational Sciences (NCATS), 2008).
About 16,000 (7.3%) of roughly 220,000 compounds were called active. Inconclusive means that the source gave no clear call. Such entries were picked first, then a sample of the others. Calls follow the shape of the dose curve; as a rule, active = well fitted inhibition curve with a large enough effect (not every such curve was filed as active); inconclusive = small, poorly fitted or top-dose-only effect, or another doubt; inactive = no such curve, though single readings can be large or run the other way. Potencies of inconclusive entries are doubtful fits and often do not repeat.

What follows are compounds tested against Aldehyde dehydrogenase 1A1 (Homo sapiens) (UniProt P00352) (assay: qHTS Assay for Inhibitors of Aldehyde Dehydrogenase 1 (ALDH1A1)). Conditions: Purified ALDH1A1, NADH fluorescence, propionaldehyde substrate; series mostly up to 75.3 µM.
Chain of UniProt P00352 (P00352 whole entry, looked up): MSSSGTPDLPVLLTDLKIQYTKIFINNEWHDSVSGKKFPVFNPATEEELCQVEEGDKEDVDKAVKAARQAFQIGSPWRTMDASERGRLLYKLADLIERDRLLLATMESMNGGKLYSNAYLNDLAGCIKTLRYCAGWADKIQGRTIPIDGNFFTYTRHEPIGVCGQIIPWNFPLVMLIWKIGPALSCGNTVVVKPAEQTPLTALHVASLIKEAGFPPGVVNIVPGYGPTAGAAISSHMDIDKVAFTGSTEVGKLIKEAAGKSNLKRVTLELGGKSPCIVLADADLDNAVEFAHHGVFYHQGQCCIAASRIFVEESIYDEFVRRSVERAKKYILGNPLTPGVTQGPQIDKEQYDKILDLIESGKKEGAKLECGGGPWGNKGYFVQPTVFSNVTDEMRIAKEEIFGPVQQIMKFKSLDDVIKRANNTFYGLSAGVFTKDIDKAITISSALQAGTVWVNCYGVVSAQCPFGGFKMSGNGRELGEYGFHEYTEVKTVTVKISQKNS

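For activity, negative = inhibition in this document: plate controls were no enzyme wells and a reference inhibitor.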
Potency is read from the fitted curve at half-maximal effect; tags tell the direction and shape of the fitted curve.

Potency, active:
CN(Cc1ccco1)c1nc(-c2cccnc2)nc2ccccc12 31.6 µM
Cc1ccc(/C=N/NC(=O)CSc2nnc(-c3ccc(Cl)cc3)n2-c2ccc(Cl)cc2)o1 10 µM
COCCCn1c(SCC(=O)NC2CCCC2)nnc1-c1ccco1 12.6 µM
O=C(CSc1nc(-c2ccco2)cc(C(F)(F)F)n1)Nc1ccc(C(=O)N2CCCCC2)cc1 14.1 µM
O=S(=O)(Nc1cccc(S(=O)(=O)N2CCCCCC2)c1)c1ccccc1 2 µM
COc1ccc(Nc2nc(-c3sc(NC(C)=O)nc3C)cs2)cc1 31.6 µM
O=S(=O)(c1cccc2nsnc12)N1CCN(c2ccccc2F)CC1 22.4 µM
O=C(C[N+]1(CC#Cc2ccccc2)CCCCC1)c1ccccc1 8.91 µM
COC(=O)C1=C(COc2ccc(C=O)cc2OC)NC(=O)NC1c1cc(C)ccc1C (centres undefined) 6.31 µM
Cc1ccc2cc(CN(CCN3CCOCC3)Cc3nnnn3Cc3ccco3)c(=O)[nH]c2c1C 5.01 µM

Potency, inactive:
CC1(CC(=O)N/N=C/c2cc(Br)c(O)cc2O)OCCO1
COc1ccccc1Nc1ncc(C(=O)N2CCC(C(N)=O)CC2)c2ccccc12
COc1cc(NS(=O)(=O)c2cccc3nsnc23)cc(OC)c1
COc1cccc(Nc2nc(-c3cccc(N4C(=O)c5ccccc5C4=O)c3)cs2)c1
CCOC(=O)c1ccc(N)cc1
CN(CC(=O)Nc1ccc(F)c(F)c1)S(=O)(=O)c1cccc2nsnc12
CCCCN(Cc1cc2ccccc2[nH]c1=O)C(=O)c1ccccn1
CCOc1nc(Nc2ccc(OC)c(Cl)c2)nc(OCC)n1
COc1ccc([N+](=O)[O-])cc1N(CC(=O)Nc1ccccc1C(=O)NC(C)C)S(C)(=O)=O
Cc1ccc(NC(=O)CSCCc2ccccn2)nc1
COCC(=O)N1CCC2(CC1)CCN(c1ncccn1)CC2
Cc1ccc(S(=O)(=O)CC(=O)NC2CC2)cc1
Oc1ccc(Cn2ccnc2)c2cccnc12
COC(=O)c1ccc(CO/N=C(\NC(C)=O)c2nonc2NC(C)=O)cc1

Potency, inconclusive:
CC(C)CC(NC(=O)C1CCC(C)CC1)C(=O)N1CCN(c2ccccn2)CC1 (centres undefined) 39.8 µM [inhibitor, single point]
Cc1cc(O)ccc1N=Cc1c(C(F)(F)F)[nH][nH]c1=O 39.8 µM [inhibitor, single point]
Cn1c(C(C#N)C(=O)Cc2cccc3ccccc23)nc2ccccc21 (centres undefined) 12.6 µM [inhibitor, partial curve, poor fit]
O=S(=O)(NCCSc1ccccn1)c1ccc(Br)cc1 17.8 µM [inhibitor, partial curve]
Cc1ccc(-c2ccc(=O)n(CC(=O)Nc3cccc(C(=O)N4CCN(C)CC4)c3)n2)cc1 39.8 µM [inhibitor, single point]
CCn1ncc(/C=N\NC(=O)c2ccc3c(c2)c(C)c(C)n3Cc2ccccc2)c1C 28.2 µM [inhibitor, partial curve]
CCOc1ccc(S(=O)(=O)Nc2nc3ccccc3nc2N2CCN(C)CC2)cc1 20 µM [inhibitor, partial curve]
CNC(=O)[C@H](C)/C=C/C(NC(=O)OCc1ccccc1)c1ccc(C(=O)OC)cc1 (some centres undefined) 39.8 µM [inhibitor, single point]
O=C(O)c1ccc(-c2ccc(/C=C3\NC(=O)N(Cc4ccc(Cl)cc4)C3=O)o2)cc1Cl 28.2 µM [inhibitor, partial curve]
COc1ccc(CCNC(=O)Cc2ccc(OCc3ccccc3)c(OC)c2[N+](=O)[O-])cc1OCc1ccccc1 44.7 µM [inhibitor, single point]
Cc1nc(N2CCC(C)CC2)c2c(C)c(C(=O)Nc3cccc(C(F)(F)F)c3)sc2n1 31.6 µM [inhibitor, single point]
COc1ccc(-n2ncc3c(NCc4cccs4)ncnc32)cc1 35.5 µM [inhibitor, partial curve]
CC1CCC2C(=O)N3C(CCC(C)[C@@H]3c3ccc(-c4ccco4)cc3)C(=O)N2C1c1cccc(N2CCCC2=O)c1 (some centres undefined) 1.58 µM [inhibitor, partial curve]
Brc1cccc(-c2n[nH]c(-c3ccccc3)n2)c1 3.16 µM [inhibitor, full curve]
CC(=O)Nc1ccc(S(=O)(=O)N2CCN(c3nc(NC4CCCC4)c4ccccc4n3)CC2)cc1 35.5 µM [inhibitor, single point]
COc1ccc(-n2c(NC(=O)c3ccco3)c(C#N)c3nc4ccccc4nc32)cc1 11.2 µM [inhibitor, partial curve]
COC(=O)c1nn(-c2cccc(C)c2)c2nnc(Cc3ccccc3)c(=O)n12 44.7 µM [inhibitor, single point]
CCOc1ccc(-c2nc(CSCC(=O)N3CCN(C(=O)c4ccco4)CC3)c(C)o2)cc1 39.8 µM [inhibitor, single point]
COC(=O)c1ccccc1NC(=O)C1CCCC1 35.5 µM [inhibitor, single point]

activity, negative = inhibition, inactive:
CCCCc1nc2c(c3c1C[C@H](C)OC3)CN(S(=O)(=O)c1c(C)noc1C)CC2 -9.5% [at 13.5 µM]
